# Assay results: PubChem BioAssay (NCATS)
# Where “and” joins values, the source holds several entries; their conditions need not be identical. Equal entries are not always repeated. This list was built around the results that the source calls inconclusive (neither active nor inactive); the mix of calls is not that of the screen. Where the call is inconclusive, the potency comes from a doubtful curve fit. Calls of active or inactive are those of the source. Calls come from the whole dose curve; as a rule, active = well fitted cell-killing curve with a large enough effect; inconclusive = small, poorly fitted or top-dose-only effect, or effect the other way; inactive = flat fitted curve, though single readings scatter.
# Test system: Tov-21-G
# Assay: Primary qHTS to identify gynecologic anti-cancer compounds using libraries of approved drugs and bioactive compounds (AID 1345084); note: nearly all actives have a fitted effect of over 55% in size
# Details: Gynecologic cancer cell panel viability, ATPlite luminescence, 48 h; series mostly up to 57.5 µM; activity change, negative = cytotoxicity: at the top concentration
# Method in brief: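 Measured: luminescence after ATPlite addition (15 min, RT). Exposure: 48 h, 37 C, 5% CO2.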
# % is set by controls: 0 for no effect and ±100 for the full control effect; potency is the fitted concentration of half-maximal effect; tags give direction and shape of the fitted curve.
SMILES,"activity change, negative = cytotoxicity",Potency
O=C(CCNNC(=O)c1ccncc1)NCc1ccccc1,inactive: 9.49%,
CS(=O)(=O)c1ccc(C(=O)Nc2ccc(Cl)c(-c3ccccn3)c2)c(Cl)c1,inactive: 3.52%,
OCCN1C[C@H](O)[C@@H](O)[C@H](O)[C@H]1CO,inactive: -3.39%,
CCN1CCc2nc(N)oc2CC1,inactive: 12.5%,
CCN(CC)CCNC(=O)c1ccc(N)cc1,,"inactive and inconclusive: 28.2 µM [cytotoxic, single point]"
CC[C@@]1(c2ccccc2)NC(=O)N(C)C1=O,inactive: -1.06%,
NC(=O)N1c2ccccc2C=Cc2ccccc21,inactive: -0.0788%,
Cn1c(=O)c(-c2c(Cl)cccc2Cl)cc2cnc(Nc3cccc(C(=O)O)c3)nc21,,"inconclusive: 1 µM [cytotoxic, single point]"
COc1cc2ncnc(Nc3cccc(Cl)c3)c2cc1OC,inactive: -21.3%,
CC(C)(C)C(=O)OCOC(=O)[C@@H]1N2C(=O)[C@@H](NC(=O)[C@H](N)c3ccccc3)[C@H]2SC1(C)C,inactive: 10.2%,
CC[N+](CC)(CCNC(=O)C(=O)NCC[N+](CC)(CC)Cc1ccccc1Cl)Cc1ccccc1Cl,inactive: 7.09%,
CN1[C@@H]2CC(OC(=O)[C@H](CO)c3ccccc3)C[C@H]1[C@@H]1O[C@@H]12 (some centres undefined),inactive: 3.88%,
CS(=O)(=O)c1ccc([C@@H](O)[C@@H](CO)NC(=O)C(Cl)Cl)cc1,,"inconclusive: 12.6 µM [rising, partial curve]"
Oc1cc(-c2nc(-c3ccccc3)[nH]c2-c2ccncc2)ccc1Cl,,active: 17.8 µM
